Here are results for 42 compounds from ChEMBL document CHEMBL4888484, “Replenishing the malaria drug discovery pipeline: Screening and hit evaluation of the MMV Hit Generation Library 1 (HGL1) against asexual blood stage Plasmodium falciparum ,using a nano luciferase reporter read-out” (2022).

Among all 150,000 compounds or so, about 540 (0.36%) showed an effect of 50% or more. Some of the results follow.

In this experiment the test system is Plasmodium falciparum. Kind of experiment: Primary screen in NF54 nanoGlo assay, in single point, at 2uM, 72h; a lower Z score goes with more inhibition. To be noted: timepoint 72 hour. The experiment is classed as functional, Erythrocyte.
Regarding `Cc1noc(C)c1CNC1(CO)CC(C)CC(C)(C)C1` (centres undefined), the “% Inhibition” value is listed as -2% and the Z score is on record as 0.29.

With `COc1cccc(C(=O)N2CCC(N3C[C@H](O)C[C@H]3C(=O)NCc3cc(F)cc(F)c3)CC2)c1`, the “% Inhibition” value was -3% and the Z score is 0.34.

On to `CC(C)CNC(N)=NCc1ccc(F)cc1`, for which the “% Inhibition” value is -2% and the Z score is on record as 0.32.

In the case of `COc1ccc(CC(=O)N2CCN(c3nc(CN4CCN(c5cc(Cl)ccc5OC)CC4)cc(=O)[nH]3)CC2)cc1`, the “% Inhibition” value is 4% and the Z score is -0.59.

Regarding `CCNC(=O)NCCc1cn(CC(C)C)c2ncccc12`, the “% Inhibition” value came to 5% and the Z score is given as -0.96.

Take `Cc1cc([C@@H](C)NC(=O)CCc2nc(N(C)C)no2)ccc1F`: the “% Inhibition” value is 35% and the Z score is recorded as -3.96.

As for `C[C@H](NCC(C)(C)C(N)=O)c1ccc(Cl)cc1`, the “% Inhibition” value came to 8% and the Z score is given as -0.95.

`Cc1cc(C)nc(N2C(=O)N(C)C(O)C2O)c1` (centres undefined): the “% Inhibition” value stood at 30% and the Z score was -3.86.

For the compound `O=C(NC(c1ccc(F)cc1)C1CCCO1)c1cnsn1` (centres undefined), the “% Inhibition” value was -9% and the Z score was found to be 0.99.

`O=C(CCc1ccc(CC2CCN(Cc3cccnc3)CC2)cc1)NCC1CC1`: the “% Inhibition” value was -18% and the Z score was 3.36.

For `Cc1cc(NC(=O)C2(C#N)CCCCC2)[nH]n1`, the “% Inhibition” value is -11% and the Z score is reported as 1.3.

For `CCC(C)(CC)c1nc(-c2ccc(S(C)(=O)=O)cc2)no1`, the “% Inhibition” value is listed as -7% and the Z score stood at 1.16.

Turning to `Nc1nc2c(c(C(=O)N3CC[C@@]4(CCCN(CC5CCC5)C4=O)C3)n1)CCCC2`, the “% Inhibition” value is -2% and the Z score worked out at 0.31.

Turning to `Cc1ccc(-n2ncc3c2CC(C)(C)C[C@@H]3NC(=O)CN2CCOC2=O)cc1`, the “% Inhibition” value is on record as -36% and the Z score is 3.19.

As for `O[C@H](COc1ccc2c(c1)CCC2)CN1CCN(c2ccccc2)CC1`, the “% Inhibition” value is reported as 6% and the Z score is on record as -0.7.

On to `CC1(C)CO[C@H](c2ccccc2Cl)CN1c1cnc(C#N)cn1`, for which the “% Inhibition” value was -1% and the Z score came out at 0.19.

For the compound `O=C(N[C@H](CO)CCO)c1ccc(N2CCC2)nc1`, the “% Inhibition” value is listed as -8% and the Z score is reported as 1.42.

With `OCc1cccc(CNC2CCN(c3ccc4c(c3)CCC4)CC2)c1`, the “% Inhibition” value was -5% and the Z score is recorded as 0.95.

For `CC(C)C(=O)N1CC(C(=O)NCc2ccccn2)C(c2cccc(F)c2)C1` (centres undefined), the “% Inhibition” value was -12% and the Z score turned out to be 1.35.

For the compound `O=C(CC1CC1)N1CCC[C@H](CCc2noc(-c3ccc(F)cc3)n2)C1`, the “% Inhibition” value is reported as -10% and the Z score was found to be 1.6.

Consider `O=S(=O)(c1ccccc1)N1CC(N(CC2CC2)C2CCOCC2)C1`, for which the “% Inhibition” value is 0% and the Z score amounted to 0.08.

As for `C[C@@H](COc1ccc(F)cc1F)NC(=O)NC1CCCCC1`, the “% Inhibition” value came out at 4% and the Z score is -0.46.

In the case of `N#C[C@H]1CCCN(C(=O)c2ccc(-c3ncc(C(=O)O)cc3Cl)cc2)C1`, the “% Inhibition” value is given as 1% and the Z score was -0.13.

On to `CCOC(=O)CN(CCC#N)C1CCCC1`, for which the “% Inhibition” value amounted to 4% and the Z score is on record as -0.54.

For the compound `CS(=O)(=O)N1CCC(c2nnc3sc(Cc4ccc(Cl)cc4)nn23)CC1`, the “% Inhibition” value worked out at 27% and the Z score was -3.49.

With `COc1ccc(CN2CCN(C(=O)c3ccco3)CC2)cn1`, the “% Inhibition” value is recorded as 1% and the Z score is given as -0.1.

For the compound `CN(CCOc1ccc(O)cc1)Cc1nc(-c2ccsc2)no1`, the “% Inhibition” value was 2% and the Z score is listed as -0.26.

`O=C(O)[C@@H]1Cc2nc[nH]c2CN1C(=O)c1csc2c1CCCC2`: the “% Inhibition” value is listed as -11% and the Z score is given as 1.72.

With `CC1(C)C[C@]1(C(=O)N1CCC(CO)(CN2CCCC2)CC1)c1ccccc1`, the “% Inhibition” value came to 10% and the Z score was -1.38.

For the compound `CCN1CN(C(=O)NCc2ccc(Cn3ccnc3)cc2)CC1=O`, the “% Inhibition” value is reported as -12% and the Z score was found to be 1.17.

Turning to `COc1ccc(-c2onc(C)c2C(=O)N[C@H](C)c2cccc(OC)c2)cc1`, the “% Inhibition” value amounted to 5% and the Z score was -0.85.

As to `Cc1ccc(S(=O)(=O)NCC[C@@H](CCO)c2ccsc2)s1`, the “% Inhibition” value is 4% and the Z score is listed as -0.55.

In the case of `CC1(C)CC(=O)c2cnc3c(C(=O)Nc4ccc(F)cc4)cnn3c2C1`, the “% Inhibition” value is given as -1% and the Z score is recorded as 0.13.

In the case of `C[C@@H](c1ccccc1)N(C)C(=O)Cc1ccc(NS(=O)(=O)c2cccs2)cc1`, the “% Inhibition” value is 4% and the Z score was -0.79.

Take `CN1CC(NC(=O)C2(Cc3ccccc3)CC3CCC2C3)CCC1=O` (centres undefined): the “% Inhibition” value is listed as -6% and the Z score was determined as 0.57.

Turning to `CCc1onc(C)c1CNC(=O)[C@@H]1CCCC[C@@H]1N1CCCC1=O`, the “% Inhibition” value was 6% and the Z score was -0.69.

In the case of `Cc1ccccc1C(=O)N(Cc1cccc(F)c1)c1ccc(CC(=O)NCC2CC2)cc1`, the “% Inhibition” value is 5% and the Z score was -0.84.

On to `Cn1cncc1CN1C[C@H](Oc2ccccc2)[C@@H](O)C1`, for which the “% Inhibition” value is listed as -4% and the Z score was found to be 0.5.

As for `c1cc2c(cc1CNC1CCCC1)CCO2`, the “% Inhibition” value is -4% and the Z score was determined as 0.64.

Regarding `N#Cc1cccc(CN(c2ccccn2)[C@H]2CC[C@H](N)CC2)c1`, the “% Inhibition” value is listed as 9% and the Z score is -1.4.

Turning to `Cc1ccc(C2c3[nH]c4ccccc4c3C[C@H]3C(=O)N(C4CCCC4)CC(=O)N23)cc1` (some centres undefined), the “% Inhibition” value was found to be 7% and the Z score is recorded as -0.87.

Turning to `O=C1NCCCC[C@@H]1NC(=O)N1CCOc2cccc(F)c2C1`, the “% Inhibition” value is listed as -5% and the Z score was determined as 1.01.

A word on the % Inhibition: it is the change of the read-out against control, counted positive when it falls.
